# Data reported in publication PMC4336329 (PLoS ONE, 2015).
# Among all 310,000 compounds or so, about 14,000 (4.5%) showed an effect of 50% or more. Effects have a minus sign here. The list shows a part of the results.
# Molecular target: human ether-à-go-go-related gene (hERG) potassium channel (human, UniProt Q12809)
# Assay: primary screen, population patch clamp on CHO cells stably expressing hERG
# 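Also: peak tail current of the secondary pulse compared with the same well before compound.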
# Chain of human ether-à-go-go-related gene (hERG) potassium channel (Q12809 whole entry, looked up): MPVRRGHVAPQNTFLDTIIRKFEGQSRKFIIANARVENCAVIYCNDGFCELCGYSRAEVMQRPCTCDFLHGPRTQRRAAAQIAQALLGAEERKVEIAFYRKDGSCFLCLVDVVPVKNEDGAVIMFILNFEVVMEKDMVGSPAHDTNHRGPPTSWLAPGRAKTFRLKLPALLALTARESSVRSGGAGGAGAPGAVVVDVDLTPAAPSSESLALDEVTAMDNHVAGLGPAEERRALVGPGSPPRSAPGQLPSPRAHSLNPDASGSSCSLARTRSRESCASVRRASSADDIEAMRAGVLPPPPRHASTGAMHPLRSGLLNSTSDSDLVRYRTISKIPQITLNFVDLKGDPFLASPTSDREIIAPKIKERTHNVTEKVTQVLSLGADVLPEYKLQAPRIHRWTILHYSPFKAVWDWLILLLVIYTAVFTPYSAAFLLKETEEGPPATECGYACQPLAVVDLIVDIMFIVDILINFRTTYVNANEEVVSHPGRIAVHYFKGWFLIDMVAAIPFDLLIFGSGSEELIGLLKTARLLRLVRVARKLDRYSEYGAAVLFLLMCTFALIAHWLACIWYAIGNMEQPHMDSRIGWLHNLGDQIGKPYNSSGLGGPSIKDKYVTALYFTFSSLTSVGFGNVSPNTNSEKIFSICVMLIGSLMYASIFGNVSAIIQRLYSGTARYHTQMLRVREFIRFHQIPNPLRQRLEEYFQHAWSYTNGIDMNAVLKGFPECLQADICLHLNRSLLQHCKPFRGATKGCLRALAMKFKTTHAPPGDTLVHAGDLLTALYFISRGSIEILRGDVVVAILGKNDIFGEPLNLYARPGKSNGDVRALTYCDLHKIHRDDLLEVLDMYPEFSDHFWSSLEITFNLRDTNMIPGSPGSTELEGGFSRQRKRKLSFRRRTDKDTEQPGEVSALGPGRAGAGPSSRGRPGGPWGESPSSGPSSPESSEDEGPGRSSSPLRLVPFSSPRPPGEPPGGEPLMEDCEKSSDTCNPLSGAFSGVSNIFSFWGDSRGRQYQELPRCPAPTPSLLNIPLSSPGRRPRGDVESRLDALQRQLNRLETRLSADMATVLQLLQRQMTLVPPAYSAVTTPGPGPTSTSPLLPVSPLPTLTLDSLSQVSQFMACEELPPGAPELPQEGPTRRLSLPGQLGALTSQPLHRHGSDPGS
row,Structure (SMILES),"hERG current change (%, negative = inhibition) at 10uM"
1,CCOC(=O)Cc1nnc2c(Nc3ccccc3F)nc3nonc3n12,-12.7%
2,COc1ccc(NC(=O)C2CC(=O)OC23CCOC(C)(C)C3)cc1 (stereo not drawn),7.78%
3,O=C(O)CCCCCNS(=O)(=O)c1ccc(Cl)cc1,5.81%
4,O=C(NNC(=O)c1ccccc1F)c1ccc2nc[nH]c2c1,-6.54%
5,Cc1cccc(NC(=O)COc2coc(CN3CCN(c4ccccc4)CC3)cc2=O)c1C,-28.6%
6,Cc1ccc(S(=O)(=O)CC(=O)N2CCOCC2)cc1,0.772%
7,COC1=CC(=O)C[C@@H](C)[C@]12Oc1c(Cl)c(OC)cc(OC)c1C2=O,-9.99%
8,O=S1(=O)CCN(Cc2ccc(Cl)cc2)CC1,14.3%
9,CCOC(=O)COc1c(OC)cc(Cl)cc1C1Nc2ccccc2C(=O)N1c1ccc(F)cc1 (stereo not drawn),-8.95%
10,Cc1ccc(S(=O)(=O)/N=c2\scc(C)n2C)cc1,0.491%
11,CC(=O)Nc1ccc(NC(=O)C2CCCN(S(=O)(=O)c3ccc(-n4cnnn4)cc3)C2)cc1 (stereo not drawn),0.72%
12,CCCCNC(=O)CCc1c(C)nc2c(c(C)nn2-c2ccccc2)c1C,-36.8%
13,O=C(Oc1cccc2c(=O)[nH]ccc12)c1ccccc1,-2.05%
14,N#C/C(=C\C=C\c1ccccc1)C(=O)NCc1cccnc1,0.383%
15,O=C(Nc1cc(C(F)(F)F)ccc1N1CCOCC1)c1ccccc1F,-4.2%
16,COC(=O)c1ccc(C(=O)O)nc1,10.8%
17,CCCCNCC(=O)Nc1sc(C)c(C)c1C(=O)OCC,-8.31%
18,COc1cccc(C(=O)Nc2ccc3c(c2)n(C)c(=O)n3C)c1,10.9%
19,CNC(=O)c1nc(C)c(C2(C)CC(c3ccccc3)=NO2)s1 (stereo not drawn),9.3%
20,COc1ccc(/C=C(\NC(=O)c2ccc(OCC(C)C)cc2)C(=O)OCc2ccco2)cc1,2.07%
21,CCN1CCc2c(C#N)c(NCc3ccccc3)nc(N(CC)CC)c2C1,-68.5%
22,COc1ccc(-c2nnc(-c3ccc(N(C)C)cc3)o2)cc1,11.1%
23,CCOC(=O)N1CCC(NC(=O)c2ccc3c(c2)N(CC)CCS3)CC1,2.99%

row,Structure (SMILES),"hERG current change (%, negative = inhibition) at 10uM"
1,O=C(O)C1CC(O)CN1S(=O)(=O)c1cccs1 (stereo not drawn),25.6%
2,CCCCCCCCN1[C@@H](CC(=O)O)c2cc(C(F)(F)F)ccc2S1(=O)=O,15.4%
3,O=C(CCN1C(=O)/C(=C/c2ccccc2)SC1=S)N[C@@H](CO)Cc1ccccc1,17.8%
4,Nn1c(Cc2ccc(Br)cc2)n[nH]c1=S,27.5%
5,Cc1ccc(S(=O)(=O)NNC(=O)C(=O)NNc2ccccn2)cc1,-0.0521%
6,O=C(COc1c(CO)cc(Br)cc1CO)NC1CCCc2ccccc21 (stereo not drawn),-3.01%
7,COc1ccccc1N1CCN(C(=O)C(Cc2ccccc2)NC(=O)C2CCCCC2)CC1 (stereo not drawn),-18.3%
8,CC(C)(C)c1ccc(COn2ccnc2)cc1,25.6%
9,CCN(CC)C(=O)c1[nH]cnc1C(=O)N[C@@H](Cc1ccccc1)C(=O)OC(C)(C)C,-8.27%
10,O=C(NCc1nc2ccccc2[nH]1)c1ccc([N+](=O)[O-])cc1,-38.5%
11,CCOc1ccc(CCNC(=O)CN2C(=O)NC3(CCCCC3)C2=O)cc1OCC,-11.1%
12,CCOC(=O)C1(Cc2cccc(OC)c2)CCN(Cc2cnc(N)nc2)CC1,-28.2%
13,Cc1cc(C)n(-c2ccc(C(=O)NC3=NCCS3)cc2)n1,0.574%
14,CCc1ccc(C(C(=O)NC2CCCC2)N(C(=O)c2csnn2)C2CC2)cc1 (stereo not drawn),-6.37%
15,Cc1cccc(CCNC(=O)c2oc3c(C)c(C)ccc3c2C)n1,7.49%
16,COc1ccc(S(=O)(=O)NCCc2cn3cccc(C)c3n2)cc1OC,21.5%
17,CC(=O)N1CCc2cc(S(=O)(=O)NCC(=O)NCc3ccccc3Cl)ccc21,7.17%
18,CCOc1ccccc1C1SCC(=O)Nc2c1c(=O)[nH]n2C(CC)CC (stereo not drawn),3.95%
19,CCCN(CC#CCO)CCC,4.82%
20,COCCOC1CCN(Cc2cn(Cc3ccccc3)nc2-c2cc3ccccc3o2)CC1,-67%
21,CC1(C)CC(=O)C2=C(C1)NCN(Cc1ccccc1)C2,-0.638%
22,COCc1cc(=O)[nH]c(-c2csc(C)n2)n1,9.14%
23,CSCC[C@H](NC(=O)OC(C)(C)C)C(=O)N/N=C/c1c(C)[nH]c(=O)[nH]c1=O,21.9%

row,Structure (SMILES),"hERG current change (%, negative = inhibition) at 10uM"
1,CC(C)Sc1nc2c([nH]1)c(=N)ncn2Cc1ccccc1,-5.52%
2,C/C(N)=C(/C#N)C(=O)COC(=O)Cc1coc2cc(C)ccc12,8.22%
3,Cc1cc(Cl)ccc1NC(=S)N1CCN(Cc2ccc3c(c2)OCO3)CC1,4.84%
4,COc1ccc(CCN2C(=O)c3ccncc3C2=O)cc1OC,0.341%
5,CC(=O)Nc1ccc(S(=O)(=O)Nc2ccccc2C(=O)N2CCOCC2)cc1,21.6%
6,CCn1c(SCC(=O)NCCc2ccccc2)nc2sc3c(c2c1=O)CCN(C)C3,-3.37%
7,Cc1ccc(-n2cc(S(=O)(=O)c3ccc(C)cc3)[nH]c2=O)cc1,4.72%
8,Cc1cccc(C2NS(=O)(=O)N=C2N)c1 (stereo not drawn),-7.14%
9,CCN=C1SC(CC(=O)NC(N)=O)C(=O)N1CC (stereo not drawn),12%
10,O=C(c1ccc(Cl)cc1)N1CCCC(C(=O)N2CCCCC2)C1 (stereo not drawn),15.3%
11,COC(=O)C(Cc1c[nH]c2ccccc12)NC(=O)C1CC1 (stereo not drawn),16%
12,CCCCNC(=S)N(C)/N=C/c1ccc(OCC(=O)Nc2c(C)cc(C)cc2C)c(OC)c1,7.74%
13,COC(=O)C1(C(F)(F)F)N=C(C(F)(F)F)Nc2ccc(Cl)cc21 (stereo not drawn),-2.1%
14,CN(Cc1ccccc1)C(=O)C1CCCN1S(=O)(=O)c1ccc2c(c1)n(C)c(=O)c(=O)n2C (stereo not drawn),-16.2%
15,COc1cc(Cc2nc3ccc(S(=O)(=O)N4CCOCC4)cc3[nH]2)cc(OC)c1OC,8.71%
16,O=C(Nc1ccccc1[N+](=O)[O-])c1cc2ccccc2nc1Cl,6.1%
17,O=C(c1cccc(S(=O)(=O)N2CCCC2)c1)N1CCN(c2ccccc2F)CC1,-18.1%
18,Cc1cc(C(=O)Nc2c(F)cc(F)cc2Br)no1,17.9%
19,Cc1cc(Cl)ccc1OCCNC(=S)NC(=O)c1cccnc1,15.1%
20,COc1ccc(-c2cc(C(F)(F)F)c(C#N)c(SCC(=O)O)n2)cc1,3.28%
21,CC1(C)OC(c2ccccc2)=C/C(=C/C=C2C(=O)NC(=O)NC2=O)O1,6.24%
22,C=CCN=C1SC(C)C(=O)N1S(=O)(=O)c1ccccc1 (stereo not drawn),-3.77%
23,NC(=O)c1ccc(NC(=O)COC(=O)CCCc2c[nH]c3ccccc23)cc1,55.7%

row,Structure (SMILES),"hERG current change (%, negative = inhibition) at 10uM"
1,O=C(O)c1sc2ncccc2c1OCc1ccccc1,-1.57%
2,Cc1c(Cl)cccc1NC(=S)N1CCN(c2ccccn2)CC1,15.5%
3,CC1(C)Cc2c(sc3nc(-c4ccccc4)n(N)c(=O)c23)CO1,17.1%
4,Cc1ccc2c(c1)N(CC(=O)NCC1CCCO1)C(=O)C(C(C)C)O2 (stereo not drawn),-7.8%
5,Cc1c(C#N)c2ccccc2n1CC(=O)N1CCCc2ccccc21,6.75%
6,CCn1c(SCc2cccc(C)c2)nnc1-c1ccc(C)cc1,-63.7%
7,O=C(CN1CCCCCC1)Nc1cc([N+](=O)[O-])ccc1Cl,-0.676%
8,COc1ccccc1C(=O)Nc1ccc2nc(SCC(=O)N(C)C)sc2c1,4.8%
9,Cc1cc(NC(=O)CSc2nnc(CNC(=O)c3c(F)cccc3F)o2)no1,4.11%
10,CCc1noc(C)c1C(=O)OC(C)C(=O)Nc1cc([N+](=O)[O-])ccc1OC (stereo not drawn),-53.1%
11,CSc1nc(C)cc(Oc2ccc(OCC(N)=O)nn2)n1,14.5%
12,N#Cc1cc([N+](=O)[O-])c(-n2nnc3ccccc32)c([N+](=O)[O-])c1,-7.38%
13,CCn1c(SCC(=O)Nc2sccc2C(N)=O)nnc1C1CC1,12.9%
14,Cn1c2c(c(=O)n(C)c1=O)CN(CCc1ccccc1)CN2,-4.29%
15,Cc1ccc(N2C(=O)SC(N(CC(=O)O)c3ccc(C)cc3)C2=O)cc1 (stereo not drawn),24.2%
16,COc1ccc(-c2nnc3ccc(SCC(=O)N4CCCCCC4)nn23)cc1OC,-22.3%
17,CN1CCCC1CCNc1ccc2sc3ccccc3c(=O)c2c1 (stereo not drawn),-34.6%
18,CC(C(=O)Nc1ccc(S(=O)(=O)N2CCOCC2)cc1)N1C(=O)C2CC=CCC2C1=O (stereo not drawn),14.1%
19,COc1ccccc1OCc1nc(-c2cccc([N+](=O)[O-])c2)no1,-13.2%
20,CCC(C)(NC(=O)CNC(C)=O)C(=O)NC1CCCCC1 (stereo not drawn),1.77%
21,O=C(c1nn2c(C(F)(F)F)cc(-c3ccco3)nc2c1Br)N1CCCc2ccccc21,8.87%
